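Where inhibition never reached the appropriate level, the endpoint shown equals the highest concentration tested. Otherwise, values were interpolated linearly from a five-concentration, 48-hour dose response in 96-well plates. GI50: concentration for 50% inhibition of growth.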 Calls of active or inactive are those of the source. Rule as the data show it: active = GI50 up to about 1.1 µM and inactive = higher.
Test system: NCI-H322M
Assay: NCI anticancer screen, dose series, 48 h

| SMILES | GI50 |
| --- | --- |
| Cc1cc(Br)c(N2C3=C(CC4=C2CCCC4=O)C(=O)CCC3)c(Br)c1 | inactive: > 100 µM |
| CC[N+]1(C)CCC(O)(c2ccc(C)cc2)C(C(=O)c2ccc(C)cc2)C1 (configuration not stated) | inactive: > 100 µM |
| NCCCn1c(Cl)nc2ccccc21 | inactive: > 100 µM |
| CCOC(=O)COc1ccc(/C=C/C(=O)c2ccc(OC)cc2)cc1 | inactive: 46.9 µM |
| Cc1cn2cc(-c3cccs3)nc2s1 | inactive: > 49.7 µM |
| COc1ccccc1C1(c2c(OC(C)C)c(=O)c2=O)SCCCS1 | inactive: > 100 µM |
| COc1cc(C2SCC(=O)N2c2ccccc2Cl)cc(OC)c1OC (configuration not stated) | inactive: > 100 µM |
| O=C(O)c1ccc(C2C3C=CC(C3)C2[N+](=O)[O-])cc1 (configuration not stated) | inactive: > 100 µM |
| Cc1cc(N(CCC#N)CCC#N)ccc1/N=N/c1ccc(Br)cc1 | inactive: > 100 µM |
| Cn1c(=O)sc2cc(C(=S)N3CCC(Cc4ccccc4)CC3)ccc21 | inactive: > 100 µM |
| COC(=O)C1CC2CCC1(O[Si](C(C)C)(C(C)C)C(C)C)C(O)C2 (configuration not stated) | inactive: 24 µM |
| Nc1c2ccccc2nc2ccc(C(=O)Nc3ccc(S(N)(=O)=O)cc3)cc12 | inactive: > 100 µM |
| O=c1cc[nH]c2ccc3nn[nH]c3c12 | inactive: > 100 µM |
| COC(=O)[C@@H]1C[C@@H](O)CN1C(=O)c1ccc([N+](=O)[O-])cc1[N+](=O)[O-] | inactive: > 100 µM |
| C=C(C)C1CC=C(C(=O)O)CC1 (configuration not stated) | inactive: 1460 µM |
| CCC#CCCCCCCCCC(F)C(=O)O (configuration not stated) | inactive: > 100 µM |
| CC(C)=CCC/C(C)=C\CCC1(C)OC(=O)C2CC21 (configuration not stated) | inactive: > 100 µM |
| CC(=O)Nc1sccc1S(=O)(=O)c1ccc(Cl)cc1 | inactive: > 100 µM |
| O=C1C=CC2(O[C@@H](Cc3ccccc3)[C@H](Cc3ccccc3)O2)C(SC(=O)c2ccccc2)C1 (some centres not stated) | inactive: 10.7 µM |
| COc1cc(OC)c(C(=O)c2cccs2)cc1N | inactive: > 100 µM |
| CC(C)[C@H]1NC(=O)[C@H]2N=C(S[C@H]2C)[C@@H]2CCCN2C(=O)[C@H](Cc2ccccc2)NC(=O)[C@@H]2CSC(=N2)[C@@H](Cc2ccccc2)NC(=O)[C@@H]2CSC1=N2 | inactive: > 50 µM |
| O=c1[nH]c2cc([N+](=O)[O-])ccc2nc1/C(=N\NO)C(O)c1ccc([N+](=O)[O-])cc1 (configuration not stated) | inactive: 97.9 µM |
| CC1(C)C(C(=O)OC(C#N)c2cccc(OCC(=O)OCc3ccccc3)c2)C1(C)C (configuration not stated) | inactive: > 100 µM |

| SMILES | GI50 |
| --- | --- |
| COc1ccc(/C(C#N)=C2/O/C(=N/N)C(c3ccc(OC)c(OC)c3)C2=O)cc1OC (configuration not stated) | inactive: > 100 µM |
| COc1ccc(-c2oc3c(OC)c(OC)c(OC)c(O)c3c(=O)c2OC)cc1OC | inactive: 46.2 µM |
| O=C(Nc1nncs1)NS(=O)(=O)n1c(=S)sc2ccccc21 | inactive: > 100 µM |
| O=[N+]([O-])c1cccc(-c2oc(/C=N/c3ccccc3)c([N+](=O)[O-])c2-c2cccc([N+](=O)[O-])c2)c1 | inactive: > 100 µM |
| N#Cc1c(N)c2c(c(-c3ccccc3)c1-c1ccccc1)C(=O)N(O)C2=O | inactive: 38.7 µM |
| CNS(=O)(=O)NN(C)S(=O)(=O)c1ccc2ccccc2c1 | inactive: > 100 µM |
| COC(=O)[C@H]1CO[C@@H](C(C)(C)C)N1C(=O)N1C=CC(=O)C[C@@H]1C | inactive: > 100 µM |
| COC(=O)c1ccccc1NC(=O)C(=O)Cc1nc2c3c(ccc2nc1O)C(=O)c1ccccc1C3=O | inactive: 11.2 µM |
| O=c1oc2c(ccc3ccccc32)cc1C1=CSC2=NCCN12 | inactive: 48.9 µM |
| O=c1ccc2c(Cl)sc(Cl)c2[nH]1 | inactive: > 100 µM |
| O=CNc1ccc(S(=O)(=O)c2ccc(NC=O)cc2)cc1 | inactive: > 100 µM |
| N#Cc1ccc(OCc2ccc3nc(-c4ccccc4)c(Cl)nc3c2)cc1 | inactive: > 100 µM |
| CNc1cccc2c1C(C)C[C@]1(C)C(=O)Nc3ccccc3[C@H]21 (some centres not stated) | inactive: 28.6 µM |
| O=C(N/N=C/c1ccc(Cl)cc1)c1ccccc1Nc1ccccc1C(=O)N/N=C/c1ccc(Cl)cc1 | inactive: > 100 µM |
| CCOC(=O)Cc1nc2c(O)ncnc2n1C1OC(COC(C)=O)C(OC(C)=O)C1OC(C)=O (configuration not stated) | inactive: > 100 µM |
| COC1=CC(=O)c2c(c(COC(C)=O)cn2C)C1=O | active: 0.282 µM |
| COc1cc(OC)c2c(=O)c3c([N+](=O)[O-])cccc3n(C)c2c1 | inactive: > 100 µM |
| CC(C)NC(=O)OCc1c(COC(=O)NC(C)C)c(-c2ccc[n+](COC(=O)C3CC3)c2)n2c1CCC2 | inactive: 83.2 µM |
| Nc1ccc(-c2nc3cc(F)ccc3s2)cc1Br | inactive: 1.28 µM |
| C/C(=N\N=C(/S)N1CC2CCC(CC2)C1)c1ccncn1 | active: < 0.01 µM |
| O=c1c2cc(O)c(O)cc2oc2cc(O)c(C3OC(CO)C(O)C(O)C3O)c(O)c12 (configuration not stated) | inactive: > 100 µM |
| Cc1c(C(=O)c2ccccc2)[n+]([O-])c2cc(Cl)c(Cl)cc2[n+]1[O-] | inactive: 4.61 µM |
| Cc1ccc(S(=O)(=O)N(/N=C/C=C/c2ccccc2)c2nnc(-c3ccccc3)c(-c3ccccc3)n2)cc1 | inactive: 11.8 µM |

| SMILES | GI50 |
| --- | --- |
| COc1ccccc1N(CN1C(=O)CCC1C(=O)O)C(C)=O (configuration not stated) | inactive: > 100 µM |
| Cc1cccc(C)c1NC(=O)CCc1nnc2s/c(=C\c3ccc(N(C)C)cc3)c(=O)n12 | inactive: > 100 µM |
| O=C(Nc1ccccc1)n1[nH]c(=O)n(-c2ccccc2)c1=O | inactive: > 100 µM |
| CCCCCCCCCCCCCCCCCCNc1ccn(C2OC(COP(=O)(O)OCC3OC(n4cc(F)c(NCCCCCCCCCCCCCCCCCC)nc4=O)CC3O)C(O)C2O)c(=O)n1 (configuration not stated) | inactive: > 100 µM |
| Clc1ccc(Nc2ncco2)cc1Cl | inactive: > 10 µM |
| C=CCN(C(C)=O)c1cc(OCc2ccccc2)c2c(c1)c(C)cn2S(=O)(=O)c1ccccc1 | inactive: 9.86 µM |
| C1=C(c2ccccc2)SC=C(c2ccccc2)S1 | inactive: 56 µM |
| C=C1CC2C[C@H](OS(=O)(=O)c3ccc(C)cc3)C(C1)N2C (some centres not stated) | inactive: > 100 µM |
| O=C1c2ccccc2C(=O)C1C(c1ccc(F)cc1)C1C(=O)c2ccccc2C1=O | inactive: > 100 µM |
| CCOc1cccc2[s+]snc12 | inactive: > 100 µM |
| c1ccc(NN(Cc2cnccn2)c2ccccc2)cc1 | inactive: 92.3 µM |
| Clc1cccc2c1OCC1C(c3ccccc3)=NN(c3ccccc3)C21 (configuration not stated) | inactive: > 100 µM |
| Cc1nc2ccc(NCCN(C)C)c3c(=O)c4ccccc4n1c23 | inactive: 1.79 µM |
| CN(CC(=O)O)c1ncc2c(n1)CCCC2 | inactive: > 100 µM |
| O=S(=O)(OI(O)CC(F)(F)F)C(F)(F)F | inactive: > 100 µM |
| O=S(O)CCCCSSCc1ccccc1CSSCCCCS(=O)O | inactive: 36.7 µM |
| COC1OC(C(=O)O)C2OC(C)(C)OC12 (configuration not stated) | inactive: > 100 µM |
| C=C1CC2CC[C@@]34C[C@@H]5O[C@@H]6C(O[C@H]7CC[C@H](CC(=O)OC8[C@@H](C)C9OC%10C[C@]%11(C[C@@H]%12O[C@@]%13(C[C@@H](C)[C@@H]%12O%11)C[C@H](C)[C@@H]%11OC%12CC(C(O)CO)OC%12C[C@@H]%11O%13)OC%10CC9O[C@H]8C[C@H]8O[C@@H](CC[C@@H]1O2)C[C@@H](C)C8=C)O[C@@H]7[C@@H]6O3)C5O4 (some centres not stated) | active: 0.00188 µM |
| N#Cc1cc2c(cc1C#N)SCCSCCCSCCS2 | inactive: 31.5 µM |
| C/C(=N\Nc1nc2ccccc2n1C)c1ccc2ccccc2n1 | active: 0.618 µM |
| COc1cc(/C=C/C=C2\CC(C)C/C(=C\C=C\c3ccc(O)c(OC)c3)C2=O)ccc1O (configuration not stated) | inactive: 14.4 µM |
| COc1c2c(cc3nc4ccccc4nc13)CC[C@H](NC(C)=O)c1cc(=O)c(SC)ccc1-2 | inactive: 7.76 µM |
| Clc1nc(NC23CC4CC(CC(C4)C2)C3)nc(NC23CC4CC(CC(C4)C2)C3)n1 | inactive: > 39.5 µM |

| SMILES | GI50 |
| --- | --- |
| c1csc(-c2nccc3c2[nH]c2ccccc23)c1 | inactive: 31.7 µM |
| CSc1ncc2c(C#N)c3[nH]c4ccccc4n3c(=O)c2n1 | inactive: 16.4 µM |
| CSC1=C(C(=O)Nc2ccc(C)cc2)C(N)=NC1=O | inactive: > 100 µM |
| C/C(=N\NC(=S)NC(CCC(=O)O)C(=O)O)c1cnccn1 (configuration not stated) | inactive: > 100 µM |
| CC(=O)OCC1C(=O)OCC1C(=O)N1Cc2cc3ccccc3nc2C1 (configuration not stated) | inactive: 16.4 µM |
| CCOP(=O)(Nc1ccc2oc(=O)c3ccccc3c2c1)OCC | inactive: > 100 µM |
| CCOC(=O)n1cncc1CC(NC(=O)Cc1c(C(=O)C=C(C)C)[nH]c2ccccc12)C(=O)OC (configuration not stated) | inactive: 16.6 µM |
| Nc1nc2cc(COc3ccc(C(=O)O)cc3)ccc2nc1-c1ccccc1 | inactive: > 10 µM |
| O=C(O)C1C2CC3CC2CC31 (configuration not stated) | inactive: > 100 µM |
| CC(=O)OCC1OC(n2c3c(cc(C#N)c2=S)CCCCCC3)C(OC(C)=O)C(OC(C)=O)C1OC(C)=O (configuration not stated) | inactive: > 100 µM |
| Cc1ccc(NC(=O)C2C(=O)N(c3ccc(C)c(C)c3)C(=O)/C2=N/O)cc1C (configuration not stated) | inactive: > 100 µM |
| CCOc1cc(NC(C)=O)ccc1C(=O)NN1C(=O)C(Oc2ccccc2)C1c1ccccc1 (configuration not stated) | inactive: > 100 µM |
| CC1(C)C[C@H](O)[C@H](O)[C@]23C(=O)O[C@H](O)[C@H]2C(C=O)=CC[C@@H]13 | inactive: > 100 µM |
| Cc1ccc(C(=O)O/N=C2/CCCC/C2=C\c2ccccc2)cc1 | inactive: 50.4 µM |
| CC(C)CC(O)P(=O)(O)O.NC1CCCCC1 (configuration not stated) | inactive: > 100 µM |
| COc1ccc2[nH]c(C(=O)N3CC(CCl)c4c3cc(N)c3ccccc43)cc2c1 (configuration not stated) | active: < 0.0146 µM |
| Oc1ccc2ccccc2c1CN(Cc1c(O)ccc2ccccc12)C1CCCCC1 | inactive: 29.6 µM |
| CC1(C)CN(CC(=O)O)CC(Cc2ccc(OCC(=O)O)cc2)N(CC(=O)O)CC(C)(C)SS1 (configuration not stated) | inactive: > 100 µM |
| NC(=O)OCC1=C(COC(N)=O)C(=O)c2c(O)ccc(O)c2C1=O | inactive: > 100 µM |
| CN(C)CCOc1ccc2[nH]c(C(=O)N3CC(CCl)c4ccc(N)cc43)cc2c1 (configuration not stated) | active: 0.137 µM |
| CC(O)CN1c2ccccc2Sc2ccc(Cl)cc21 (configuration not stated) | inactive: > 10 µM |
| COc1cc(/C=[N+](\[O-])c2ccccc2Cl)ccc1OC(=S)S | inactive: 68.5 µM |
| O=c1c2cc([N+](=O)[O-])cnc2sn1-c1ccc([N+](=O)[O-])cc1 | inactive: 34 µM |

From ChEMBL document CHEMBL1201862, “PubChem BioAssay data set” (2004)
